# In the BET-seq Pho4 binding data (Le et al. 2018):
# This is one part of the list. Values were computed here from the reads of four pooled replicates and scatter widely.
# Biological target: T1, Pho4 (S. cerevisiae) (UniProt P07270)
# T1 sequence: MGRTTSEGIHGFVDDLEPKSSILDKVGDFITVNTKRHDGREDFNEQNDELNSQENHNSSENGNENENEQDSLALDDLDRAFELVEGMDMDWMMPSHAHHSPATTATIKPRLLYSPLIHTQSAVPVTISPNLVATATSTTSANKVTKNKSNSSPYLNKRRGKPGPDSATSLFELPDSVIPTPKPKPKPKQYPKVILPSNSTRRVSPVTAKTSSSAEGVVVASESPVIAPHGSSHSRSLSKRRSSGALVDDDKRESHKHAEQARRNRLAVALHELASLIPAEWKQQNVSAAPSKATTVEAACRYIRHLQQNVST
# Test: relative binding free energy (BET-seq); higher = weaker binding
# Conditions: reference: library average
row,Sequence,relative binding free energy [kcal/mol]
1,ATATTCACGTGTAGTT,0.25
2,CTAGGCACGTGGGATT,-0.13
3,GGGCACACGTGGAGGT,0.05
4,CGGTGCACGTGTGTTG,-0.02
5,TTGATCACGTGGGATC,0.09
6,CATTACACGTGGTTGG,0.04
7,TGCGCCACGTGGTAGG,-0.14
8,CTGGGCACGTGTTAGT,-0.06
9,AATGTCACGTGGTGAT,0.05
10,TATGACACGTGTGAAT,0.05
11,ATTGACACGTGCTGAG,0.02
12,TGTGGCACGTGGAAGA,-0.12
13,CGTTGCACGTGGCTTG,-0.13
14,AGATTCACGTGTGTCT,0.17
15,AAGTTCACGTGGCGCT,0.25
16,ATTGGCACGTGGCCGG,-0.21
17,AAGCGCACGTGGGGCG,-0.21
18,TATTTCACGTGAGGCA,0.61
19,TGGGACACGTGCGGTC,0.07
20,GTCGACACGTGGTGCG,-0.04
21,GACAGCACGTGGTTGG,-0.01
22,TTCTACACGTGGTTTT,0.03
23,ATTCACACGTGTTAGG,-0.04

row,Sequence,relative binding free energy [kcal/mol]
1,CTTAGCACGTGATGTG,0.02
2,GGGTTCACGTGAGAAG,0.5
3,GGTAGCACGTGCCGGG,-0.08
4,ACTGTCACGTGGGGCG,0.07
5,CTTGGCACGTGGTACG,-0.26
6,AATGTCACGTGTGAAG,0.14
7,TTTTCCACGTGAGGTA,0.25
8,TTCGCCACGTGTAGGG,-0.12
9,CTAGACACGTGAGGTG,0.2
10,TTTCTCACGTGTGGAT,0.26
11,GGGGGCACGTGGGGAC,-0.15
12,AGGTTCACGTGTCCTG,0.28
13,AAGTTCACGTGCATGT,0.2
14,AGCGGCACGTGGGCGG,-0.13
15,AACGACACGTGTTGGG,0.02
16,GTTAACACGTGGTGTG,-0.02
17,TATTACACGTGATGTA,0.1
18,GTCCTCACGTGGTGTG,0.15
19,ATGTCCACGTGATAGG,0.15
20,CGTTACACGTGAGGGT,0.15
21,AAGGACACGTGGTTGA,-0.02
22,TTTGGCACGTGCAAGG,-0.12
23,GTCTGCACGTGTTATG,0.18

row,Sequence,relative binding free energy [kcal/mol]
1,CGGTTCACGTGTTGTT,0.36
2,ATCAGCACGTGGTTAT,-0.06
3,TTGTGCACGTGGCCTG,-0.23
4,TTGGTCACGTGCACTT,0.07
5,TGTATCACGTGGTTGG,0.12
6,CGGCGCACGTGGTGTA,-0.16
7,TTCTTCACGTGGAGGT,0.34
8,TCGTACACGTGTTGAT,0.07
9,TGTGACACGTGATTCG,0.02
10,CTTGGCACGTGAGAGA,0.2
11,TCTCTCACGTGTGTTG,0.2
12,TGAGACACGTGTGGCT,0.15
13,GTGGTCACGTGTGATC,0.33
14,GTTGGCACGTGAGGCA,0.18
15,AAGCGCACGTGGTGGA,-0.17
16,GGCTGCACGTGGGTGT,-0.06
17,TTATGCACGTGGAGTT,-0.04
18,TGGGGCACGTGGCGAG,-0.09
19,ATGTGCACGTGTATGA,0.06
20,TGGAACACGTGATTGG,0.2
21,GTCTGCACGTGTCGTG,0.09
22,TCATGCACGTGTGGGA,-0.09
23,GCTATCACGTGGTATG,0.06

row,Sequence,relative binding free energy [kcal/mol]
1,ACTTGCACGTGGTTGC,0.04
2,AGTGTCACGTGTTCAT,0.07
3,TGTAGCACGTGATGGA,0.15
4,CATGTCACGTGTTTAG,0.07
5,TTTTCCACGTGATTGG,0.22
6,GATGTCACGTGAGGCA,0.3
7,GCGGTCACGTGGACGG,0.13
8,CTGTACACGTGGAGTA,0.11
9,TAGTGCACGTGTGGAC,0.2
10,CTTTACACGTGTGTAA,0.06
11,ATGGCCACGTGATAGG,0.03
12,AATATCACGTGAATGG,0.33
13,CTAGGCACGTGGAGGT,-0.12
14,ACTGACACGTGTGGGT,0.08
15,TATTTCACGTGGTAGT,0.13
16,ATTGCCACGTGTGATT,0.04
17,TGGTTCACGTGACCGT,0.34
18,TATGGCACGTGAAGTA,0.2
19,ATGTGCACGTGTAGCG,-0.01
20,ACTATCACGTGGGGGT,0.02
21,TCTAACACGTGGGTGC,0.02
22,CTAGGCACGTGGAGAT,-0.05
23,GGAGGCACGTGTATGG,-0.07

row,Sequence,relative binding free energy [kcal/mol]
1,CAGGGCACGTGAGTTA,0.29
2,GTGGTCACGTGCTTGC,0.12
3,AGTTACACGTGCTGAG,0.15
4,AAAGGCACGTGGGTTC,-0.03
5,TATGGCACGTGATGAA,-0.01
6,GTGAGCACGTGTAAAT,0.13
7,ATTTGCACGTGATGTA,0.02
8,TTGAACACGTGGTTGA,-0.13
9,AGTGGCACGTGTATGT,-0.04
10,GTTAACACGTGCGTTG,-0.14
11,TGATTCACGTGTTTCT,0.23
12,TTGCACACGTGTGTAA,0.09
13,AGGACCACGTGGTTTT,0.04
14,TGTGACACGTGTAAAT,0.13
15,TTCTGCACGTGACGTT,0.19
16,TGAACCACGTGGTGAT,0.06
17,GTCTTCACGTGTCGGG,0.19
18,CGGGTCACGTGGTATT,-0.01
19,TATGCCACGTGGTGGG,-0.18
20,GGTATCACGTGGCGTA,0.09
21,TACGTCACGTGAGTAG,0.32
22,AGCGGCACGTGGGGTC,-0.19
23,TGTATCACGTGCTTGT,0.01
